Some of the results follow. Rule as the data show it: active = 3.2 or more and inactive = the rest. Most of these values are background signal.
molecular target: SHP2 C-SH2 domain E139D; experiment: enrichment score (SH2-bound / input frequency) (ratio); bacterial display of known human phosphotyrosine sites (pTyr-Var adds point mutants) read by sequencing; higher = stronger binding; tyrosines were phosphorylated by kinases first; conditions: peptide library: pTyr-Var
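Also: displayed peptides selected on beads carrying the immobilized SH2 domain, with library peptides lacking any tyrosine serving as negative controls.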

Enrichment score, inactive:
YPSLPYSPVSS [CAMKK2_Y128_C123Y] 1.02
EEKKKYFDTKI [CASP5_Y103_YF] 0.753
LPPREYVVVPS [CAPN1_Y494_G492R] 0.748
IMAYFYMCDSA [CASD1_Y382_R386S] 2.81
KTNVSYFGALD [CACNB4_Y103_C104F] 0.884
DGPVNYEEFVQ [CALM2_Y139_Q136P] 0.631
VKMLEYRGKDV [CASP5_Y74_L75R] 0.663
LPPGEYVVVPS [CAPN1_Y494] 1.08
FPSLPYSPVSS [CAMKK2_Y128_C123Y_YF] 1.09
TGHKGYVAFLE [CARD9_Y76] 0.966
EQFELYCEMGS [CBL_Y371_YF] 0.893
KTNVSYCGALD [CACNB4_Y103] 1.04
KKKKQYKGKYL [CASK_Y708_D710G] 0.332
EDSEFYRAFEE [CASQ2_Y179_K180R_YF] 0.407
EAVSIYQFHGQ [CBLC_Y402] 1.12
KDGNGYISAAE [CALM1_Y100] 0.595
EPFELYCEMGS [CBL_Y371_Q367P_YF] 0.84
EDSEYYKAFEE [CASQ2_Y179] 0.438

molecular target: SHP2 C-SH2 domain wild-type; experiment: as above; conditions: peptide library: pTyr-Var

Enrichment score, inactive:
YPSLPYSPVSS [CAMKK2_Y128_C123Y] 0.884
EEKKKYFDTKI [CASP5_Y103_YF] 0.746
LPPREYVVVPS [CAPN1_Y494_G492R] 0.9
IMAYFYMCDSA [CASD1_Y382_R386S] 2.57
KTNVSYFGALD [CACNB4_Y103_C104F] 0.853
DGPVNYEEFVQ [CALM2_Y139_Q136P] 0.667
VKMLEYRGKDV [CASP5_Y74_L75R] 0.907
LPPGEYVVVPS [CAPN1_Y494] 0.705
FPSLPYSPVSS [CAMKK2_Y128_C123Y_YF] 0.997
TGHKGYVAFLE [CARD9_Y76] 0.93
EQFELYCEMGS [CBL_Y371_YF] 1.17
KTNVSYCGALD [CACNB4_Y103] 0.842
KKKKQYKGKYL [CASK_Y708_D710G] 0.255
EDSEFYRAFEE [CASQ2_Y179_K180R_YF] 0.384
EAVSIYQFHGQ [CBLC_Y402] 0.738
KDGNGYISAAE [CALM1_Y100] 0.445
EPFELYCEMGS [CBL_Y371_Q367P_YF] 0.926
EDSEYYKAFEE [CASQ2_Y179] 0.664

molecular target: SHP2 N-SH2 domain L43F; experiment: as above; conditions: peptide library: pTyr-Var

Enrichment score, inactive:
YPSLPYSPVSS [CAMKK2_Y128_C123Y] 0.897
EEKKKYFDTKI [CASP5_Y103_YF] 0.689
LPPREYVVVPS [CAPN1_Y494_G492R] 0.862
IMAYFYMCDSA [CASD1_Y382_R386S] 2.67
KTNVSYFGALD [CACNB4_Y103_C104F] 0.803
DGPVNYEEFVQ [CALM2_Y139_Q136P] 0.585
VKMLEYRGKDV [CASP5_Y74_L75R] 1.03
LPPGEYVVVPS [CAPN1_Y494] 0.745
FPSLPYSPVSS [CAMKK2_Y128_C123Y_YF] 0.833
TGHKGYVAFLE [CARD9_Y76] 1.04
EQFELYCEMGS [CBL_Y371_YF] 1
KTNVSYCGALD [CACNB4_Y103] 0.787
KKKKQYKGKYL [CASK_Y708_D710G] 0.324
EDSEFYRAFEE [CASQ2_Y179_K180R_YF] 0.576
EAVSIYQFHGQ [CBLC_Y402] 0.99
KDGNGYISAAE [CALM1_Y100] 0.481
EPFELYCEMGS [CBL_Y371_Q367P_YF] 0.652
EDSEYYKAFEE [CASQ2_Y179] 0.501

molecular target: SHP2 N-SH2 domain T42A; experiment: as above; conditions: peptide library: pTyr-Var

Enrichment score, inactive:
YPSLPYSPVSS [CAMKK2_Y128_C123Y] 0.795
EEKKKYFDTKI [CASP5_Y103_YF] 0.591
LPPREYVVVPS [CAPN1_Y494_G492R] 0.516
IMAYFYMCDSA [CASD1_Y382_R386S] 2.48
KTNVSYFGALD [CACNB4_Y103_C104F] 0.703
DGPVNYEEFVQ [CALM2_Y139_Q136P] 0.732
VKMLEYRGKDV [CASP5_Y74_L75R] 0.812
LPPGEYVVVPS [CAPN1_Y494] 0.618
FPSLPYSPVSS [CAMKK2_Y128_C123Y_YF] 0.937
TGHKGYVAFLE [CARD9_Y76] 0.748
EQFELYCEMGS [CBL_Y371_YF] 1.05
KTNVSYCGALD [CACNB4_Y103] 0.797
KKKKQYKGKYL [CASK_Y708_D710G] 0.29
EDSEFYRAFEE [CASQ2_Y179_K180R_YF] 0.49
EAVSIYQFHGQ [CBLC_Y402] 0.849
KDGNGYISAAE [CALM1_Y100] 0.429
EPFELYCEMGS [CBL_Y371_Q367P_YF] 0.639
EDSEYYKAFEE [CASQ2_Y179] 0.66

molecular target: SHP2 N-SH2 domain T52S; experiment: as above; conditions: peptide library: pTyr-Var

Enrichment score, inactive:
YPSLPYSPVSS [CAMKK2_Y128_C123Y] 0.927
EEKKKYFDTKI [CASP5_Y103_YF] 0.763
LPPREYVVVPS [CAPN1_Y494_G492R] 0.52
IMAYFYMCDSA [CASD1_Y382_R386S] 2.23
KTNVSYFGALD [CACNB4_Y103_C104F] 0.968
DGPVNYEEFVQ [CALM2_Y139_Q136P] 0.624
VKMLEYRGKDV [CASP5_Y74_L75R] 0.929
LPPGEYVVVPS [CAPN1_Y494] 0.768
FPSLPYSPVSS [CAMKK2_Y128_C123Y_YF] 1.16
TGHKGYVAFLE [CARD9_Y76] 0.783
EQFELYCEMGS [CBL_Y371_YF] 0.736
KTNVSYCGALD [CACNB4_Y103] 0.728
KKKKQYKGKYL [CASK_Y708_D710G] 0.382
EDSEFYRAFEE [CASQ2_Y179_K180R_YF] 0.525
EAVSIYQFHGQ [CBLC_Y402] 0.964
KDGNGYISAAE [CALM1_Y100] 0.497
EPFELYCEMGS [CBL_Y371_Q367P_YF] 0.894
EDSEYYKAFEE [CASQ2_Y179] 0.762

molecular target: SHP2 N-SH2 domain wild-type; experiment: as above; conditions: peptide library: pTyr-Var

Enrichment score, inactive:
YPSLPYSPVSS [CAMKK2_Y128_C123Y] 0.977
EEKKKYFDTKI [CASP5_Y103_YF] 0.621
LPPREYVVVPS [CAPN1_Y494_G492R] 0.735
IMAYFYMCDSA [CASD1_Y382_R386S] 2.86
KTNVSYFGALD [CACNB4_Y103_C104F] 0.734
DGPVNYEEFVQ [CALM2_Y139_Q136P] 0.845
VKMLEYRGKDV [CASP5_Y74_L75R] 0.822
LPPGEYVVVPS [CAPN1_Y494] 0.849
FPSLPYSPVSS [CAMKK2_Y128_C123Y_YF] 1.02
TGHKGYVAFLE [CARD9_Y76] 0.817
EQFELYCEMGS [CBL_Y371_YF] 1.31
KTNVSYCGALD [CACNB4_Y103] 0.943
KKKKQYKGKYL [CASK_Y708_D710G] 0.297
EDSEFYRAFEE [CASQ2_Y179_K180R_YF] 0.476
EAVSIYQFHGQ [CBLC_Y402] 0.697
KDGNGYISAAE [CALM1_Y100] 0.754
EPFELYCEMGS [CBL_Y371_Q367P_YF] 0.992
EDSEYYKAFEE [CASQ2_Y179] 0.639

From the supplement of paper PMC10369915
